The values that follow come from ChEMBL document CHEMBL4888484, “Replenishing the malaria drug discovery pipeline: Screening and hit evaluation of the MMV Hit Generation Library 1 (HGL1) against asexual blood stage Plasmodium falciparum ,using a nano luciferase reporter read-out” (2022).

Out of some 150,000 compounds screened, about 540 (0.36%) showed an effect of 50% or more. This is one part of the list.

In the experiment the test system is Plasmodium falciparum. As to the kind of experiment: Primary screen in NF54 nanoGlo assay, in single point, at 2uM, 72h; a lower Z score goes with more inhibition. The format is functional, Erythrocyte. The settings on record: timepoint 72 hour.
The term % Inhibition denotes the change of the read-out against control, counted positive when it falls. As for `N#Cc1ccc(OC[C@H]2C[C@@H](O)C2)cc1F`, the “% Inhibition” value is 5% and the Z score is recorded as -0.62.
The corresponding values for `O=C(Cn1cc(C(=O)c2ccco2)c2ccccc21)NC1CCCCC1` are 3% and -0.37.
The corresponding values for `Cc1nc(C)c(F)c(N2CCN(Cc3ccnn3C)CC2)n1` are -9% and 1.53.
For `C=CCn1cc(CN(CC)Cc2nc(CC)no2)c(C)n1`, the “% Inhibition” value is listed as -6% and the Z score is listed as 0.82.
For `CCNc1nc(CN(CCN2CCOCC2)CC(=O)OC)cs1`, the “% Inhibition” value worked out at 19% and the Z score is -2.46.
In the case of `CCn1cc(-c2c(-c3ccccc3)ncn2Cc2ccc(CO)cc2)cn1`, the “% Inhibition” value was found to be 3% and the Z score is on record as -0.26.
Turning to `COc1ccc(-n2cccn2)cc1S(=O)(=O)N[C@H]1COC[C@@H]1OC`, the “% Inhibition” value was 1% and the Z score is -0.11.
With `O=C(CCCn1cnnn1)N1CCc2[nH]c3ccc(OC(F)(F)F)cc3c2C1`, the “% Inhibition” value stood at 6% and the Z score is listed as -0.69.
Consider `COc1nn(C)cc1CNC(=O)C1(c2ccccc2C)CCCC1`, for which the “% Inhibition” value is listed as -5% and the Z score worked out at 0.85.
For `Cc1cnc(CCNS(=O)(=O)Cc2cc(Cl)cc(Cl)c2)s1`, the “% Inhibition” value stood at 0% and the Z score amounted to 0.06.
The corresponding values for `NS(=O)(=O)c1cccc(Cl)c1Cl` are 2% and -0.33.
As for `O=C(Cc1c(F)cccc1Cl)N1CC(Nc2cccnn2)C1`, the “% Inhibition” value is recorded as -9% and the Z score stood at 1.06.
For the molecule `Cc1cc(C(=O)N[C@@H](Cn2nccn2)c2ccccc2)no1`, the “% Inhibition” value is reported as -10% and the Z score came out at 1.62.
For `Cc1nc(C)c(C(=O)N2CC3(CCCCC3)[C@@H]2C(C)C)o1`, the “% Inhibition” value is given as -5% and the Z score is recorded as 0.75.
As for `O=C(Cc1ccc(F)cc1)N1CCN(c2cc(C(F)(F)F)ncn2)CC1`, the “% Inhibition” value turned out to be 2% and the Z score was -0.35.
For `COC(=O)c1sc(=S)n(Cc2ccccc2)c1C`, the “% Inhibition” value is on record as -11% and the Z score turned out to be 1.23.
With `CN(C)C(=O)N(CCN1CCCCC1)[C@H]1CCN(C(=O)CC2CCCCC2)C1`, the “% Inhibition” value is -5% and the Z score came to 0.61.
The corresponding values for `COCc1nc(N2CC(O)C2)c2c(-c3ccccc3)csc2n1` are 6% and -0.7.
Turning to `O=C(Nc1ccccc1)N[C@H]1CCc2[nH]cnc2C1`, the “% Inhibition” value is recorded as 1% and the Z score is recorded as -0.17.
For the molecule `CC(C)(C)c1ccc(-n2ncc3c2CCC[C@@H]3NCc2ccc(CO)o2)cc1`, the “% Inhibition” value is on record as -19% and the Z score is listed as 2.83.
Taken in the same sequence, the figures for `CC1CCCCC1CC(=O)N1CCC2(CCCN2C)C1` (stereo not drawn) were -5% and 1.05.
For the molecule `CCn1c2c(c(=O)n3ncc(C(=O)N4CCN(c5ccc(F)cc5)CC4)c13)CNCC2`, the “% Inhibition” value is -7% and the Z score was determined as 0.93.
Taken in the same sequence, the figures for `CC1CCN(S(=O)(=O)N2CCN(CC(=O)Nc3cc(Cl)cc(Cl)c3)CC2)CC1` were -1% and 0.25.
For the molecule `COc1ccc(C(C)C)cc1CN1CC[C@@H](O)C[C@H]1C(=O)O`, the “% Inhibition” value is given as -12% and the Z score was determined as 1.57.
